Measurements: the supplement of paper PMC10126150
Sequences with one replicate were seen in a single cluster, so their values are uncertain.

Tested on: ATP
Assay: switch fluorescence ratio, 500 uM ATP over buffer (Cy3 cluster intensity, sum of 5 cycles each) (fold (ratio)); higher = stronger signal-on switching upon ATP binding; sequences stand for … in TCGTCGGCAGCGTCAGATGTGTATAAGAGACAGTTTTTTTTTTTTTTTTTTTTTTTTT…TC
Conditions: aptamer strand: ATP DNA aptamer (quencher-CACCTGGGGGAGTATTGCGGAGGAAGG + anchor), 100 nM annealed; ATP concentration: 500 uM; one replicate
How it was run: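 Imaging in selection buffer was followed by imaging after 15 min with 500 uM ATP at 22 °C, for Cy3-labelled switching-strand clusters annealed to 100 nM quencher-labelled ATP aptamer on a modified Illumina MiSeq flow-cell. Five of these buffer/ATP cycles ran, separated by NaOH stripping and re-annealing. The fluorescence ratio per cluster is summed target-cycle over summed buffer-cycle Cy3 intensity, averaged per switch-domain sequence; clusters outside 100-1000 RFU were removed.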
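Also: ATP exposure 15 min at 22 °C before imaging.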

TCCCATCTTT showed a switch fluorescence ratio of 1.02.
For AATAGTTGT, the switch fluorescence ratio was 0.974.
In the case of GTGACAGTCC, the switch fluorescence ratio is reported as 1.04.
CGTTCGTCT was tested, and the switch fluorescence ratio was 1.01.
TCCCCCCCCC gave a switch fluorescence ratio of 1.92.
Work on CCCTCGTATG yielded a switch fluorescence ratio of 0.964.
ATTTCGGG gave a switch fluorescence ratio of 0.98.
With AAAGAACATA the switch fluorescence ratio was 1.13.
TTCCGTCCGA showed a switch fluorescence ratio of 1.34.
With CCTGGGCGAG the switch fluorescence ratio was 1.11.
With ACAGCTAGGT the switch fluorescence ratio was 1.07.
In the case of AAACCACCCT, the switch fluorescence ratio is reported as 1.26.
CAACAGGGTC was tested, and the switch fluorescence ratio was 1.05.
GGTAGCTGTT gave a switch fluorescence ratio of 1.04.
For AGCCTTGATG, the switch fluorescence ratio was 1.02.
CCGACAACTA was tested, and the switch fluorescence ratio was 3.4.
Sequence CGGACTATAC has a switch fluorescence ratio of 4.19.
Work on CATGAACACG yielded a switch fluorescence ratio of 0.976.
TCAGGCCTGT gave a switch fluorescence ratio of 1.01.
For TATTATTTC, the switch fluorescence ratio was 0.967.
Sequence AAGTCGATAC has a switch fluorescence ratio of 3.17.
Work on AAACAGCTAT yielded a switch fluorescence ratio of 1.07.
Work on ATCAGTATGC yielded a switch fluorescence ratio of 1.1.
With ACGAGAAGAG the switch fluorescence ratio was 1.05.
TAATCGTGGC was tested, and the switch fluorescence ratio was 0.986.
TTGGATACA gave a switch fluorescence ratio of 1.02.
Work on CCTACCTACG yielded a switch fluorescence ratio of 1.6.
Work on GAGATGCTTC yielded a switch fluorescence ratio of 1.2.
TGGTGCCGCC showed a switch fluorescence ratio of 0.995.
TTGTTTACCT gave a switch fluorescence ratio of 1.08.
Work on ATTTTAATGT yielded a switch fluorescence ratio of 1.06.
Sequence TAAGCAGCTG has a switch fluorescence ratio of 1.01.
GGTGAATGCT showed a switch fluorescence ratio of 0.953.
Sequence TTTGTGAAGT has a switch fluorescence ratio of 1.01.
In the case of GAACACTGCC, the switch fluorescence ratio is reported as 1.2.
TAAGCAAAAA was tested, and the switch fluorescence ratio was 1.09.
TTTTACCAAG gave a switch fluorescence ratio of 1.07.
For CGCCGCGGAG, the switch fluorescence ratio was 1.33.
For ATAGCTTTAA, the switch fluorescence ratio was 1.04.
GCAGGTAAGA was tested, and the switch fluorescence ratio was 0.976.
GCATTTGACT gave a switch fluorescence ratio of 1.04.
CCAGGCCGT gave a switch fluorescence ratio of 0.961.
ATTTTAGTAT showed a switch fluorescence ratio of 1.01.
Work on GGCGTAATG yielded a switch fluorescence ratio of 0.985.
Sequence ATATCTACTT has a switch fluorescence ratio of 1.06.
For GCATTGCGCA, the switch fluorescence ratio was 1.
Work on TCATTGAGAG yielded a switch fluorescence ratio of 0.991.
AGTTTTAGCG showed a switch fluorescence ratio of 1.01.
In the case of GACGATTCGA, the switch fluorescence ratio is reported as 1.03.
Sequence AGTCTCTTGG has a switch fluorescence ratio of 0.97.
For CGGGGGAACC, the switch fluorescence ratio was 1.02.
CTGATACAG showed a switch fluorescence ratio of 1.03.
For AATAAAATCT, the switch fluorescence ratio was 1.14.
GAGTCATTGA gave a switch fluorescence ratio of 0.975.
GCGTGAGTGG gave a switch fluorescence ratio of 0.986.
TATGAAC showed a switch fluorescence ratio of 1.06.
Work on CTTACGTCGT yielded a switch fluorescence ratio of 1.02.
TTTCGCGGTA showed a switch fluorescence ratio of 0.999.
TACGTCTTGA was tested, and the switch fluorescence ratio was 0.942.
ATACAATTGA showed a switch fluorescence ratio of 1.
GAGAAAAGC showed a switch fluorescence ratio of 0.998.
In the case of ATCTAGATGG, the switch fluorescence ratio is reported as 0.958.
Sequence TTTATTGGTA has a switch fluorescence ratio of 1.03.
AATTGTGTT showed a switch fluorescence ratio of 0.977.
Sequence CTTGGACCAT has a switch fluorescence ratio of 1.04.
Work on GCGGTCGAAT yielded a switch fluorescence ratio of 0.97.
In the case of TAAGTGATTG, the switch fluorescence ratio is reported as 0.986.
With TTTTCCACT the switch fluorescence ratio was 1.04.
AGATTTAACC gave a switch fluorescence ratio of 1.06.
With CGCGTAGTGG the switch fluorescence ratio was 1.02.
GATAGGTCAA was tested, and the switch fluorescence ratio was 0.983.
TGAGTCGAGT was tested, and the switch fluorescence ratio was 0.957.
In the case of TAATCAACTG, the switch fluorescence ratio is reported as 1.11.
TAACGAGGCT gave a switch fluorescence ratio of 0.998.
With GAAGGCGATG the switch fluorescence ratio was 1.03.
In the case of TAGACCGTGT, the switch fluorescence ratio is reported as 1.02.
In the case of ATGCAGTCAT, the switch fluorescence ratio is reported as 0.974.
TGGTATCCAG showed a switch fluorescence ratio of 0.986.
ATTATAATGA was tested, and the switch fluorescence ratio was 0.987.
For CGCCACCGAC, the switch fluorescence ratio was 1.55.
GCAAGTAAGG was tested, and the switch fluorescence ratio was 1.29.
In the case of GGCTCAGGGA, the switch fluorescence ratio is reported as 1.03.
In the case of GTCATCTGAG, the switch fluorescence ratio is reported as 1.02.
Work on TATAAAACTC yielded a switch fluorescence ratio of 0.991.
With GTCGGAAGTC the switch fluorescence ratio was 1.06.
GTCGTGCTTG gave a switch fluorescence ratio of 0.993.
Work on ACGACTTAAA yielded a switch fluorescence ratio of 0.969.
Sequence CGCTGTATTC has a switch fluorescence ratio of 1.06.
Work on CGGAGTACT yielded a switch fluorescence ratio of 1.25.
Sequence ATGGATTC has a switch fluorescence ratio of 0.976.
CTTCATAAT was tested, and the switch fluorescence ratio was 1.
GTCACTTCGC was tested, and the switch fluorescence ratio was 1.05.
For TTCACCATCA, the switch fluorescence ratio was 1.06.
AATTTTACTT showed a switch fluorescence ratio of 1.13.
Work on CAATAGAATG yielded a switch fluorescence ratio of 1.02.
GGGAGCCTGC was tested, and the switch fluorescence ratio was 1.02.
For GAGATATAGT, the switch fluorescence ratio was 0.969.
CAGAATTGGA gave a switch fluorescence ratio of 0.958.
Sequence GATGAGCCCG has a switch fluorescence ratio of 0.995.
Work on CCAGCTCTAA yielded a switch fluorescence ratio of 1.08.
Sequence GCCATCTGAT has a switch fluorescence ratio of 0.971.
Sequence AGCACATGAG has a switch fluorescence ratio of 1.03.
Work on AATTCCTACC yielded a switch fluorescence ratio of 1.11.
AGGCAGCACA showed a switch fluorescence ratio of 1.12.
GGATGTTCTG gave a switch fluorescence ratio of 0.99.
For TCGTACAGCT, the switch fluorescence ratio was 1.02.
For ATCTAAGTGA, the switch fluorescence ratio was 0.97.
For CCTACTCGGA, the switch fluorescence ratio was 1.04.
For GACATTTGGC, the switch fluorescence ratio was 0.962.
ACGAAGCGGT was tested, and the switch fluorescence ratio was 1.24.
In the case of TTGTTTCAAC, the switch fluorescence ratio is reported as 1.07.
Sequence TTGTGTGATA has a switch fluorescence ratio of 0.988.
Work on CCCGGAACAA yielded a switch fluorescence ratio of 1.52.
TAAAAGGCTT showed a switch fluorescence ratio of 0.952.
Work on CCGTCTAGAG yielded a switch fluorescence ratio of 1.3.
Work on ATATACTACT yielded a switch fluorescence ratio of 1.08.
With ATCTTACTGG the switch fluorescence ratio was 0.988.
For TTATCCCGCT, the switch fluorescence ratio was 1.1.
GGATAAGTGC was tested, and the switch fluorescence ratio was 0.985.
For CTGGGAGGT, the switch fluorescence ratio was 0.993.
AGTACGCAGA gave a switch fluorescence ratio of 1.19.
Work on TAGAGGGTG yielded a switch fluorescence ratio of 0.988.
AGTGTATGTT was tested, and the switch fluorescence ratio was 1.01.
Work on TTTCTAATAG yielded a switch fluorescence ratio of 1.03.
Work on CGGTATTGCT yielded a switch fluorescence ratio of 1.
In the case of TAGTTAGTAA, the switch fluorescence ratio is reported as 0.986.
GTAGCATGCG showed a switch fluorescence ratio of 0.794.
With TAATGGTTAC the switch fluorescence ratio was 1.03.
GCGTGTTCGG showed a switch fluorescence ratio of 0.976.
CTAGAATTAA was tested, and the switch fluorescence ratio was 0.958.
In the case of CAATCCCTAA, the switch fluorescence ratio is reported as 0.97.
For GCATGTGCAG, the switch fluorescence ratio was 1.04.
For CACAGAAGC, the switch fluorescence ratio was 1.06.
ATTAATATCC was tested, and the switch fluorescence ratio was 0.998.
CGCGGCATCT gave a switch fluorescence ratio of 1.08.
Sequence AGCTGGGACA has a switch fluorescence ratio of 1.01.
Work on GATTAATCCG yielded a switch fluorescence ratio of 1.03.
Work on CAGTAATCCT yielded a switch fluorescence ratio of 1.07.
GCCGGAATAT gave a switch fluorescence ratio of 1.78.
TAATAGTTCA showed a switch fluorescence ratio of 1.02.
AGACGAAGAT was tested, and the switch fluorescence ratio was 1.01.
AAGAACCAAC showed a switch fluorescence ratio of 1.17.
For TGAACATTAA, the switch fluorescence ratio was 1.
Sequence GGGCAATAGG has a switch fluorescence ratio of 1.16.
AAGAAGACAT was tested, and the switch fluorescence ratio was 0.988.
In the case of CTTATTGTTG, the switch fluorescence ratio is reported as 0.957.
CGAATAGAAC showed a switch fluorescence ratio of 1.02.
GGGTCGGAAA was tested, and the switch fluorescence ratio was 0.969.
For ATCGGGGTTA, the switch fluorescence ratio was 0.965.
In the case of GGCTTGATGG, the switch fluorescence ratio is reported as 0.985.
TAGTTTATAG was tested, and the switch fluorescence ratio was 0.996.
With TTTTGTCAGC the switch fluorescence ratio was 1.02.
Sequence ATCCAGTGAC has a switch fluorescence ratio of 1.07.
For CGTAATATTG, the switch fluorescence ratio was 1.1.
GGACGGTAGC was tested, and the switch fluorescence ratio was 1.1.
TATGTCAGTA showed a switch fluorescence ratio of 0.972.
Sequence CTATTTAAGC has a switch fluorescence ratio of 1.01.
In the case of AATGAGGTTG, the switch fluorescence ratio is reported as 0.934.
